# Reference: paper PMC9456343
# Amino acid sequences for entries named in this document (tags omitted).
# UniProt Q7GBF8: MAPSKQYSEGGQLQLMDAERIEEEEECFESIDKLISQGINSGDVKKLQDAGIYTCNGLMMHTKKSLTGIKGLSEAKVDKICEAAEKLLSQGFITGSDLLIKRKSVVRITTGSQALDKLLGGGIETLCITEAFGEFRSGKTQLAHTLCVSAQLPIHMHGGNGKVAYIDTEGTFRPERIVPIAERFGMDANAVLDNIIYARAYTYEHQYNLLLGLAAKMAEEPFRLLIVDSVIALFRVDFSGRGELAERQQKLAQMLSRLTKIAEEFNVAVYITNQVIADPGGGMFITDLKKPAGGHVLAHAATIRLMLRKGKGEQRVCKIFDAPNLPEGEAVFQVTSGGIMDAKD
# Positions count from the first letter of the chain named. No constants are given. Whether binding was seen depends on the method and setting. For part of these data: In cells and extracts the contact can be indirect. Some binding calls cover weakened binding; strength is not graded here.
# T1: OsDMC1B (rice) (UniProt Q7GBF7)
# T1 sequence: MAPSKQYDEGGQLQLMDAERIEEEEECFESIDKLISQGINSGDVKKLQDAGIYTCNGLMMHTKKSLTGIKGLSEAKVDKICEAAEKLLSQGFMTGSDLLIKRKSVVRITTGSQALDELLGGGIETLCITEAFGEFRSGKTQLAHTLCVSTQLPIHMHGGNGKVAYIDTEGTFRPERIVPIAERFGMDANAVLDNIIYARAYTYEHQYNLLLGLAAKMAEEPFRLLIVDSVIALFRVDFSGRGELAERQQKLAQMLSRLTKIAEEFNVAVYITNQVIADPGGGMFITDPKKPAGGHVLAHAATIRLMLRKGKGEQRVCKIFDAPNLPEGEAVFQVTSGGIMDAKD
# B1: OsDMC1A (protein, UniProt Q7GBF8 1-344)
# chain: T1 sequence with D8S, M93I, E117K, T150A, P288L
# B2: OsDMC1B (protein, UniProt Q7GBF7 1-344)
# chain: T1 sequence
# Columns and labels:
# [1] = target: T1, OsDMC1B (rice); assay: two-hybrid; pGBKT7 bait and pGADT7 prey in Y2H Gold yeast; selection on SD/-His-Ade-Trp-Leu medium containing X-alpha-Gal and AbA
# [2] = target: OsDMC1A (rice) (UniProt Q7GBF8); assay: as above
# [3] = target: T1, OsDMC1B (rice); assay: split reporter; BiFC with pSCYNE (SCN) and pSCYCE(R) (SCC) constructs in rice protoplasts; 28 °C in the dark for 18 h; CFP signals by confocal microscopy
# [4] = target: OsDMC1A (rice) (UniProt Q7GBF8); assay: as above
Binder,binding [1],binding [2],binding [3],binding [4]
B1,binds,no binding,binds,no binding
B2,no binding,,no binding,
